# According to the supplement of paper PMC12217912:
# The other results are listed elsewhere or left out. The full chains were built here from the parent and the listed change. Inactive controls read about 0.05.
# B1: TEV protease; numbered along this chain (parent)
# chain: MGESLFKGPRDYNPISSSICHLTNESDGHTTSLYGIGFGPFIITNKHLFRRNNGTLVVQSLHGVFKVKDTTTLQQHLVDGRDMIIIRMPKDFPPFPQKLKFREPQREERICLVTTNFQTKSMSSMVSDTSCTFPSGDGIFWKHWIQTKDGQCGSPLVSTRDGFIVGIHSASNFTNTNNYFTSVPKNFMELLTNQEAQQWVSGWRLNADSVLWGGHKVFMVKPEEPFQPVKEATQL
# Variants of: B1
# Experiment: raw area under fraction-flipped curve 0-4 h after induction (AUC4h, not background-subtracted), DNA-recorder readout of cleavage of the substrate (dimensionless); higher = more cleavage of the substrate by the protease variant
# Details: temperature: 34 °C; time window: 0-4 h after rhamnose induction
# 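Further: Bxb1 expression induced with 0.2% (w/v) L-rhamnose at OD600 near 0.5, cultures sampled hourly, flipped fraction per protease–substrate barcode pair counted by paired-end Illumina sequencing.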
Variant,area with substrate ENLYFQD,area with substrate ENLYFQF,area with substrate ENLYFQG,area with substrate ENLYFQH,area with substrate ENLYFQI,area with substrate ENLYFQL,area with substrate ENLYFQN,area with substrate ENLYFQP,area with substrate ENLYFQQ,area with substrate ENLYFQR,area with substrate ENLYFQS,area with substrate ENLYFQT,area with substrate ENLYFQV,area with substrate ENLYFQW,area with substrate ENLYFQY,area with substrate ENLYFQK,area with substrate ENLYFQE,area with substrate ENLYFQM
MGGSLFKGPRDYNPISSSICHLTNESDGHTTSLYGIGFGPFIITNKHLFRRNNGTLVVQSLHGVFKVKDTTTLQQHLVDGRDMIIIRMPKDFPPFPQKLKFREPQREERICLVTTNFQTKSMSSMVSDTSCTFPSGDGIFWKHWIQTKDGQCGSPLVSTRDGFIVGIHSASNFTNTNNYFTSVPKNFMELLTNQEAQQWVSGWRLNADSVLWGGHKVFMVKPEEPFQPVKEATQL [E3G],0.0719,0.0741,0.0758,0.0733,0.0722,0.0654,0.0714,0.0718,0.0611,0.0603,0.0698,0.0627,0.0693,0.0669,0.059,–,–,–
MGESLFKGPRDYNPISSSICHLTNESDGHTTSLYGIGFGPFIITNKHLFRRNNGTLVVQSLHGVFKVKDTTTLHQHLVDGRDMIIIRMPKDFPPFPQKLKFREPQREERICLVTTNFQTKSMSSMVSDTSCTFPSGDGIFWKHWIQTKDGQCGSPLVSTRDGFIVGIHSASNFTNTNNYFTSVPKNFMELLTNQEAQQWVSGWRLNADSVLWGGHKVFMVKPEEPFQPVKEATQL [Q74H],0.106,–,–,–,–,–,–,–,–,–,0.0921,0.0744,0.0624,0.0665,–,0.0544,–,–
MGESLFKGPRDYNPISSSICHLTNESDGHTTSLYGIGFGPFIITNKHLFRRNNGTLVVQSLHGVFKVKDTTTLQQHLVDGRDMIIIRMPKDFPPFPQKLKFREPQREERICLVTTNFQTKSMSSMVSDTSCTFPSGDGIFWKHWIQTKDGQCGSPLVSTRDGFIVGIHSASNFTNTNNYFTSVPKNFMELLTNQEAQQWVSGWRLNADSVLWGGHKVFMVKPEEPFPPVKEATQL [Q227P],0.0841,–,0.0871,–,0.0519,0.0656,0.068,–,0.0484,0.0494,0.105,0.0018,0.0816,–,–,–,0.0531,0.073
MGESLFKGPRDYNPISSSICHLTNESDGHTTSLYGIGFGPFIITNKHLFRRYNGTLVVQSLHGVFKVKDTTTLQQHLVDGRDMIIIRMPKDFPPFPQKLKFREPQREERICLVTTNFQTKSMSSMVSDTSCTFPSGDGIFWKHWIQTKDGQCGSPLVSTRDGFIVGIHSASNFTNTNNYFTSVPKNFMELLTNQEAQQWVSGWRLNADSVLWGGHKVFMVKPEEPFQPVKEATQL [N52Y],–,–,0.063,0.0656,0.0693,0.0594,–,0.056,0.0544,0.061,0.0704,0.0597,0.0607,0.05,–,0.056,0.0527,0.0672
MGESLFKGPRDYNPISSSICHLTNESDGHTTSLYGIGFGPFIITNKHLFRRINGTLVVQSLHGVFKVKDTTTLQQHLVDGRDMIIIRMPKDFPPFPQKLKFREPQREERICLVTTNFQTKSMSSMVSDTSCTFPSGDGIFWKHWIQTKDGQCGSPLVSTRDGFIVGIHSASNFTNTNNYFTSVPKNFMELLTNQEAQQWVSGWRLNADSVLWGGHKVFMVKPEEPFQPVKEATQL [N52I],0.0701,–,–,–,–,–,–,–,–,0.0567,0.0648,–,–,0.0528,0.0593,0.0521,–,–
MGESLFKGPRDYNPISSSICHLTNESDGHTTSLYGIGFGPFIITNKHLFRRMNGTLVVQSLHGVFKVKDTTTLQQHLVDGRDMIIIRMPKDFPPFPQKLKFREPQREERICLVTTNFQTKSMSSMVSDTSCTFPSGDGIFWKHWIQTKDGQCGSPLVSTRDGFIVGIHSASNFTNTNNYFTSVPKNFMELLTNQEAQQWVSGWRLNADSVLWGGHKVFMVKPEEPFQPVKEATQL [N52M],0.0872,–,0.0718,–,–,0.0624,0.0719,0.0634,–,–,0.0654,–,–,0.0623,–,0.0637,–,–
MGESLFKGPRDYNPISSSICHLTNESDGHTTSLYGIGFGPFIITNKHLFRRNNGTLVVQSLHGVFKVKDTTTLQQHLVDGRDMIIIRMPKDFPPFPQKLKFREPQREERICLVTTNFQTKAMSSMVSDTSCTFPSGDGIFWKHWIQTKDGQCGSPLVSTRDGFIVGIHSASNFTNTNNYFTSVPKNFMELLTNQEAQQWVSGWRLNADSVLWGGHKVFMVKPEEPFQPVKEATQL [S121A],0.0834,–,0.0939,0.0804,–,0.0536,–,–,–,0.0632,0.0997,0.0506,0.0254,–,–,0.067,–,0.049
MGESLFKGPRDYNPISSSICHLTNESDGHTTSLYGIGFGPFIITNKHLFRRNNGTLVVQSLHGVFKVKDTTTLQQHLVDGRDMIIIRMPKDFPPFPQKLKFREPQREERICLVTTNFQTKSMSSMVSDTSCTFPSGDGIFWKHWIQTKDGQCGSPLVSTRDGFIVGIHSASNFTNTNNYFTSVPKNFMELLTNQEAQQWVSGRRLNADSVLWGGHKVFMVKPEEPFQPVKEATQL [W203R],–,0.0648,0.0496,–,0.0852,–,0.0492,–,–,–,0.066,0.063,–,0.0532,0.0618,0.0623,–,0.0609
MGESLFKGPRDYNPISSSICHLTNESDGHTTSLYGIGFGPFIITNKHLFRRNNGTLVVQSLHGVFKVKDTTTLQQHLVDGRDMIIIRMPKDFPPFPQKLKFREPQREERICLVTTNFQTKSMSSMVSDTSCTFPSGDGIFWKHWIQTKDGQCGSPLVSTRDGFIVGIHSASNFTNTNNYFTSVPKNFMELLTNQEAQQWVSGWRLNADSDLWGGHKVFMVKPEEPFQPVKEATQL [V210D],0.0528,–,–,–,0.0752,0.0526,0.0598,0.0509,0.0513,0.0572,0.0767,0.0492,–,–,0.0527,–,–,0.0459
MGESLFKGPRDYNPISSSICHLTNESDGHTTSLYGIGFGPFIITNKHLFRRNNGTLVVQSLHGVFKVKDTTTLQQHLVDGRDMIIIRMPKDFPPFPQKLKFREPQREERICLVTTNFQTKSMSSMVSDTSCTFPSGDGIFWKHWIQTKDGQCGSPLVSERDGFIVGIHSASNFTNTNNYFTSVPKNFMELLTNQEAQQWVSGWRLNADSVLWGGHKVFMVKPEEPFQPVKEATQL [T159E],0.044,–,–,0.085,0.0631,–,–,–,0.0618,0.0049,0.1,0.0532,0.0473,–,–,–,0.0713,0.0688
MGESLFKGPRDYNPISSYICHLTNESDGHTTSLYGIGFGPFIITNKHLFRRNNGTLVVQSLHGVFKVKDTTTLQQHLVDGRDMIIIRMPKDFPPFPQKLKFREPQREERICLVTTNFQTKSMSSMVSDTSCTFPSGDGIFWKHWIQTKDGQCGSPLVSTRDGFIVGIHSASNFTNTNNYFTSVPKNFMELLTNQEAQQWVSGWRLNADSVLWGGHKVFMVKPEEPFQPVKEATQL [S18Y],0.0589,0.0765,–,0.0797,0.0716,–,–,–,0.0686,0.0541,0.0914,–,0.0544,–,–,0.0628,–,0.0762
MGESLFKGPRDYNPISSSICHLTNESDGHTTSLYGIGFGPFIITNKHLFRRNNGTLVVQSLHGVRKVKDTTTLQQHLVDGRDMIIIRMPKDFPPFPQKLKFREPQREERICLVTTNFQTKSMSSMVSDTSCTFPSGDGIFWKHWIQTKDGQCGSPLVSTRDGFIVGIHSASNFTNTNNYFTSVPKNFMELLTNQEAQQWVSGWRLNADSVLWGGHKVFMVKPEEPFQPVKEATQL [F65R],0.11,0.0867,–,–,0.062,0.053,0.0534,0.0472,–,0.0905,0.097,0.0393,–,0.0748,0.0989,0.0623,0.0537,–
MGESLFKGPRDYNPISSSICHLTNESDGHTTSLYGIGFGPFIITNKHLFRRNNGTLVVQSLHGVFKVKDTTTLQQHLVDGRDMIIIRMPKDFPPFPQKLKFREPQREERICLVTTNFQTKSMSSMVSDTSCTFPSGDGIFWKHWIQTKDGQCGSPLVSTRDGFIVGIHSASNFTNTNNYFTSVPKNFMELLTNQCAQQWVSGWRLNADSVLWGGHKVFMVKPEEPFQPVKEATQL [E195C],0.0849,–,0.0746,0.0733,–,–,0.0785,–,0.0585,0.0505,0.0973,–,–,0.0702,0.0704,0.0558,–,0.0659
MGESLFKGPRDYNPISSSICHLTNESDGHTTSLYGIGFGPFIITNKHLFRRNNGTLVVQSLHGVFKVKDTTTLQQHLVDGRDMIIIRMPKDFPPFPQKLKFREPQREERICLVTTNFQTKSMSSMVSDTSCTFPSGDGIFWKHWIQTKDGQCGSPLVSTRDGFIVGIHSASNFTNTNNYFTSVPKNFMELLTNQEAQQWVSGWRLNADSVLWGGHKVFMVKPEEPFQNVKEATQL [P228N],0.0711,–,–,0.0858,0.0547,0.0633,0.0774,0.0529,–,0.0727,0.104,–,–,–,0.0589,0.0755,0.0765,0.0888
MGESLFKGPRDYNPISSSICHLTNESDGHTTSLYGIGFGPFIITNKHLFRRNNGTLVVQSLHGVFKVKDTTTLQQHLVDGRDMIIIRMPKDFPPFPQKLKFREPQREERICLVTTNFQTKSMSSMVSDTSCTFPSGDGIFWKHWIQTKDGQCGSPLVSTRDGFIVGIHSASNFTNTNNYFTSVPKNFMELLYNQEAQQWVSGWRLNADSVLWGGHKVFMVKPEEPFQPVKEATQL [T192Y],–,0.0935,–,–,–,–,–,–,–,0.0581,0.102,0.0864,0.0499,–,–,–,–,–
MGESLFKGPRDYNPISSSICHLTNESDGHTTSLYGIGFGPFIITNKHLFRRNNGTLVVQSLHGVFKVKDTTTLQQHLVDGRDMIIIRMPKDFPPFPQKLKFREPQREERICLVTTNFQTKSMSSMVSDTSCTFPSGDGIFWKHTIQTKDGQCGSPLVSTRDGFIVGIHSASNFTNTNNYFTSVPKNFMELLTNQEAQQWVSGWRLNADSVLWGGHKVFMVKPEEPFQPVKEATQL [W144T],–,0.0693,–,–,–,–,0.0703,0.0619,–,–,0.0941,0.0648,0.0617,–,–,0.0691,–,0.109
MGESLFKGPRDYNPISSSICHLTNESDMHTTSLYGIGFGPFIITNKHLFRRNNGTLVVQSLHGVFKVKDTTTLQQHLVDGRDMIIIRMPKDFPPFPQKLKFREPQREERICLVTTNFQTKSMSSMVSDTSCTFPSGDGIFWKHWIQTKDGQCGSPLVSTRDGFIVGIHSASNFTNTNNYFTSVPKNFMELLTNQEAQQWVSGWRLNADSVLWGGHKVFMVKPEEPFQPVKEATQL [G28M],0.0595,–,–,0.0838,0.0637,0.0625,0.089,–,–,0.051,0.0902,0.0631,–,0.0439,0.0764,0.0552,–,0.0947
MGESLFKGPRDYNPISSSICHLTNESDGHTTSLYGIGFGPFIITNKHLFRRNNGTLVVQSLHGVFKVKDTTTLQQHLVDGRDMIIIRMPKDFPPFPQKLKFREPQREERICLVTTNFQTKSMSSMVSDTSCTFPSGDGIFWKHWIQTKDGQCGSPLVSTRDGFIVGIHSASNFTNTNNYFTSVPKNFMELLTNQEAQQWVSVWRLNADSVLWGGHKVFMVKPEEPFQPVKEATQL [G202V],0.0715,–,–,0.059,–,0.0426,–,–,–,0.0567,0.064,–,0.0577,0.0529,0.0521,0.0537,–,–
MGESLFKGPRDYNPISSSICHLTNESDGHTTSLYGIGFGPFIITNKHLFRRNNGTLVVQSLHGVFKVKDTTTLQQHLVDGRDMIIIRMPKDFPPFPQKLKFREPQREERIKLVTTNFQTKSMSSMVSDTSCTFPSGDGIFWKHWIQTKDGQCGSPLVSTRDGFIVGIHSASNFTNTNNYFTSVPKNFMELLTNQEAQQWVSGWRLNADSVLWGGHKVFMVKPEEPFQPVKEATQL [C111K],0.0927,–,0.144,–,–,0.0611,0.0813,–,–,–,0.111,0.0987,0.0786,0.0568,0.0819,0.0711,–,0.113
